The supplement of paper PMC3334620
Over roughly 33,000 sequences, “E-score (-0.5 to 0.5)” has its median near -0.041; the highest 2% begin near 0.37. This is one part of the list.

target: T1, Ecm22 (UniProt Q05958); assay: PBM E-score (8-mer binding enrichment) (E-score (-0.5 to 0.5)); higher = stronger / more preferred TF binding; most listed sequences are background and not binding sites; details: protein concentration: 200 nM; construct: GST-full length
T1 sequence: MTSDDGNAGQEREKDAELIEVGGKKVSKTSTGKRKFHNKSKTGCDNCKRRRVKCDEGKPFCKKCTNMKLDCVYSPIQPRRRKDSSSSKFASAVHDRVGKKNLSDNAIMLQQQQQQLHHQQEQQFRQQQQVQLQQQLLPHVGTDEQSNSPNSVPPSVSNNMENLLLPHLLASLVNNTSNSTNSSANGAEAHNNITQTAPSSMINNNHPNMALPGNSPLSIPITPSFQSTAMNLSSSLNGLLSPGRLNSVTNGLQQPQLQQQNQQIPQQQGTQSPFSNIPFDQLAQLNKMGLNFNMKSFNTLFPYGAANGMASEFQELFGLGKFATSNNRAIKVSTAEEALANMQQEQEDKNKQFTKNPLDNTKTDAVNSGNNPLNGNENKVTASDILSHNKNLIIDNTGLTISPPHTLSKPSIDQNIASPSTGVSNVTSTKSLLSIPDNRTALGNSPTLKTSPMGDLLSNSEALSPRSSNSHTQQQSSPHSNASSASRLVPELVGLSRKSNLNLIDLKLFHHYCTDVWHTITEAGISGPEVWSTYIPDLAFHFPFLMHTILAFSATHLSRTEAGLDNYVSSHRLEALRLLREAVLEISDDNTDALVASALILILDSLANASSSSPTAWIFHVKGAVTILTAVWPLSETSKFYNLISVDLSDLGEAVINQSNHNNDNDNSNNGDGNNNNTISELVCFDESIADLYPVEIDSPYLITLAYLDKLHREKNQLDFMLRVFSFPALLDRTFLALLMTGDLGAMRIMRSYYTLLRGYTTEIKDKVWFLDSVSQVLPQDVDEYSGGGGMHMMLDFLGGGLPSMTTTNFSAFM
Procedure, shortened: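 PURExpress in vitro transcription/translation supplied GST-tagged yeast transcription factors, either full-length or DNA-binding domain. Applied at about 100-200 nM to universal all-10-mer Agilent arrays double-stranded by primer extension, the bound protein was detected with fluorescent anti-GST. E-scores, modified Wilcoxon-Mann-Whitney statistics, were given by the Universal PBM Analysis Suite to ungapped eight-base words pooled with their reverse complements after masliner normalisation.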

Row | Sequence | PBM E-score
1 | AGCACCCA | -0.0799
2 | AACGCTTG | -0.121
3 | TATCAAGA | -0.0146
4 | ACCTGATC | -0.053
5 | ACAGAACC | -0.115
6 | TGTATAAA | 0.172
7 | AAACCCTC | -0.187
8 | CAGCAACC | -0.127
9 | TACTATAA | -0.0205
10 | CCGCTCCG | 0.238
11 | CAGGCGCG | -0.16
12 | ACTCGGAG | -0.0452
13 | GTTTACGA | 0.46
14 | ACCCATAT | 0.118
15 | AACGATGA | 0.386
16 | CGAGAGCG | 0.282
17 | ACATTTAA | -0.0504
18 | ATGTACGC | 0.112
19 | ACGATATG | 0.313
20 | GCCCGCAC | -0.0245
21 | GCACGGTA | -0.0289
22 | CTGACTCC | -0.149
23 | ACGAGAAC | 0.4
24 | CTCTTAAC | 0.0664
25 | GCACTTCC | -0.303

Row | Sequence | PBM E-score
26 | ATTCCCAC | -0.151
27 | GCAATCAC | -0.0838
28 | AATGAGGC | -0.134
29 | TAGGCAAA | -0.179
30 | AAAGGCGG | 0.0199
31 | AATAGGTC | 0.0337
32 | ACCGATTA | 0.219
33 | CCTCCGAA | -0.154
34 | GAACAGGC | -0.0122
35 | CTGATTGA | -0.0814
36 | AAACCACT | -0.153
37 | GCCCGGAC | 0.0159
38 | AATAGCGA | 0.128
39 | ACTCGCTA | 0.27
40 | AATACCTG | -0.0223
41 | ACGAAAGC | 0.337
42 | ATGAACCG | 0.1
43 | ACCTTAAG | 0.0677
44 | CCCCGAAA | -0.201
45 | AATCGTCG | 0.222
46 | TAATCACA | -0.139
47 | ACCGGTGG | -0.185
48 | GGACTCAC | -0.172
49 | CCACAGAC | -0.288
50 | CGACCCCC | -0.12

Row | Sequence | PBM E-score
51 | GAGGTCAC | -0.0843
52 | CCGTCGAC | -0.115
53 | CCCCAGGA | -0.304
54 | GCTGATAC | 0.0686
55 | AATGACCG | 0.0584
56 | ACACGCCT | -0.162
57 | CTCGCGCA | 0.157
58 | GTGGTAGA | -0.208
59 | AATGCGCG | 0.0895
60 | ATCTGCTA | 0.019
61 | ACGTTGAC | 0.0967
62 | AGAAGCTA | -0.0596
63 | CAAGGCGG | -0.186
64 | ATACCCAA | -0.0827
65 | GCAGGTAA | 0.0142
66 | GTCCCCAA | -0.0658
67 | AATGGCAC | -0.283
68 | AGCTGCTG | 0.0118
69 | ATGTTGTA | 0.0872
70 | CCGTCAGA | -0.155
71 | CCGCCGGC | -0.254
72 | ACTGAAAC | 0.142
73 | CTTTCCCC | -0.129
74 | ACACAAAA | 0.0511
75 | ACAGTAGT | 0.0302

Row | Sequence | PBM E-score
76 | CGTCTATA | -0.0795
77 | CACGACCC | -0.0107
78 | GCGTAGAA | -0.0103
79 | ACTGTGTG | -0.0829
80 | AACCTAGT | -0.228
81 | ATTTTTAC | 0.182
82 | CTTCTCGA | -0.0882
83 | AAGTGTGT | -0.156
84 | GGAAAGGA | -0.143
85 | GACCTAAC | 0.129
86 | AACGCCGG | -0.0456
87 | ACGCGATC | 0.235
88 | ATGCCCAA | -0.0485
89 | GAGACACC | -0.06
90 | CGAGGACA | 0.0726
91 | AGTCTGAT | -0.119
92 | GGCTTCAC | -0.171
93 | GCCGATGA | -0.0632
94 | ATCTGGTG | -0.107
95 | CATATAGA | 0.0615
96 | CCATATAG | -0.00691
97 | TAGGTGGA | -0.245
98 | GGATCATA | -0.18
99 | AAATATAC | 0.169
100 | CGTATGGA | 0.383

Row | Sequence | PBM E-score
101 | CGACCAAA | 0.307
102 | GTTCTCCA | 0.0352
103 | AACTAGTT | -0.163
104 | GGCTAACA | 0.0425
105 | ACTCGTAC | 0.484
106 | ATACCGAC | 0.202
107 | ATTAACTA | 0.0313
108 | CCAACTGG | -0.0629
109 | ATATACCA | 0.0649
110 | ATTAATGG | 0.14
111 | GCTGAGTA | -0.195
112 | CTAAAAGA | -0.134
113 | AATAACGC | 0.0149
114 | GCTTATCA | -0.143
115 | ATCCGATC | 0.192
116 | ACAACATC | -0.0933
117 | TATATTGA | -0.0675
118 | CCCTTAAG | -0.0729
119 | AGTCTATC | -0.164
120 | CCCCGATA | -0.067
121 | CTCGTGGC | -0.196
122 | GGTGAACC | -0.0366
123 | AGTTAGAA | -0.188
124 | CCGGTGTA | 0.0643
125 | AACGGCCT | 0.225

Row | Sequence | PBM E-score
126 | CCTAAGTA | 0.0729
127 | GAGGAGTA | 0.0709
128 | GCAACGTA | 0.136
129 | CACACTTA | -0.132
130 | AGGCCTGA | -0.274
131 | AGTGGCTG | -0.0444
132 | CTATGTAA | -0.149
133 | ATCGAATG | -0.219
134 | CGATCCAA | 0.0344
135 | AGCACTAT | -0.0613
136 | CGTCCGCA | -0.136
137 | ACGTTTCC | -0.0691
138 | GATGATTA | 0.0553
139 | CGCTCCAA | 0.159
140 | GTTCTAAA | 0.0119
141 | CGGAGTTA | 0.00617
142 | GCCTACAA | -0.141
143 | AACACTTG | 0.0595
144 | CCCCGAGA | -0.23
145 | TCGAGGAA | 0.101
146 | ACTGCACG | -0.141
147 | CGCTCGTC | 0.168
148 | CCAAGATC | 0.079
149 | ATCTTCCC | -0.0919
150 | AATGAGCC | -0.23

Row | Sequence | PBM E-score
151 | AAATGTCT | -0.00532
152 | GTCAATCA | -0.0528
153 | ACGATGAC | 0.304
154 | CGCGTCCG | -0.0276
155 | GCCCGACA | -0.141
156 | AACCGATG | 0.171
157 | AACGGTGG | 0.183
158 | CATAAGAG | -0.108
159 | AGAAGCTC | -0.0156
160 | CATGCAGC | -0.17
161 | AGAGAGGG | -0.223
162 | GGAGTGCC | -0.116
163 | AAAGCTGC | -0.0675
164 | ACCGGGCA | -0.109
165 | ATGCCTCG | 0.175
166 | ACCGACTA | -0.0152
167 | AGCTGCAA | -0.204
168 | CGATTTGA | 0.166
169 | GGGTGGAC | -0.17
170 | GACCCCGA | -0.128
171 | GAACTCCC | 0.178
172 | GGAGCTTA | -0.0571
